# Out of some 310,000 compounds screened, about 14,000 (4.5%) showed an effect of 50% or more. Effects have a minus sign here. This is one part of the list.
# Biological target: human ether-à-go-go-related gene (hERG) potassium channel (human, UniProt Q12809)
# Experiment: primary screen, population patch clamp on CHO cells stably expressing hERG
# 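Note: peak tail current of the secondary pulse compared with the same well before compound.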
# human ether-à-go-go-related gene (hERG) potassium channel, sequence (Q12809 whole entry, looked up): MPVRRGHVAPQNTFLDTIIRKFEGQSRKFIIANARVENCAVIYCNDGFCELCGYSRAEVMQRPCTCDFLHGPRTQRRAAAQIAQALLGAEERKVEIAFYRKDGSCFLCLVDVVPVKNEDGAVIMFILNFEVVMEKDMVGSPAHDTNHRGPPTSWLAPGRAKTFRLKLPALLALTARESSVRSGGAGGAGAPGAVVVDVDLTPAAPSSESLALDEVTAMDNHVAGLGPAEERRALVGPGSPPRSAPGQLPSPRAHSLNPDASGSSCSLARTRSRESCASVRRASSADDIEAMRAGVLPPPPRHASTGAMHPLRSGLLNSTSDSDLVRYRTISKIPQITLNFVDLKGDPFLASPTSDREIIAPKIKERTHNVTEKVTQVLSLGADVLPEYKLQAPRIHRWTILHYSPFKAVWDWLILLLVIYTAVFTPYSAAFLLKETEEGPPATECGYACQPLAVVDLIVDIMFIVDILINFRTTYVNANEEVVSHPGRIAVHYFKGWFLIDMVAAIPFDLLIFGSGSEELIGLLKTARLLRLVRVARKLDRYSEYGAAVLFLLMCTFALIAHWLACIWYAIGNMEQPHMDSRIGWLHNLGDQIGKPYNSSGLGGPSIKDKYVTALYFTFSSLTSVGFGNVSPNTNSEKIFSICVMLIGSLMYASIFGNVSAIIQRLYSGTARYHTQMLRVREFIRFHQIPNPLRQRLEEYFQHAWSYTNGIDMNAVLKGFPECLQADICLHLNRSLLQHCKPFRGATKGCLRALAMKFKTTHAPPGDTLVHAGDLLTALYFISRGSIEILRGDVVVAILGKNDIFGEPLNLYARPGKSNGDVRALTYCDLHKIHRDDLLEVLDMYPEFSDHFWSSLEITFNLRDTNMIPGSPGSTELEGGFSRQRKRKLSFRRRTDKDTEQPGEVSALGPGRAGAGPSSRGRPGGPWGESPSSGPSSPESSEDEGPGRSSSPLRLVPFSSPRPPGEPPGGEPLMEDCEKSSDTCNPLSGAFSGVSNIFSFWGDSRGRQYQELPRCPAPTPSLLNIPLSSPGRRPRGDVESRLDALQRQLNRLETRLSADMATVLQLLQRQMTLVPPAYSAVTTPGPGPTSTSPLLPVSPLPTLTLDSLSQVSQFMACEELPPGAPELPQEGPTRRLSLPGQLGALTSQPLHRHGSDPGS
row,Structure (SMILES),"hERG current change (%, negative = inhibition) at 10uM [%]"
1,O=C1NCC(COc2cccc3ccccc23)O1 (centres unmarked),13.3
2,Clc1ccc(-c2nnc3sc(-c4ccc(Br)o4)nn23)c(Cl)c1,9.33
3,Cc1nc(NS(=O)(=O)c2ccccc2)sc1NC(=O)Nc1ccccc1,28.6
4,Cc1cc(C(=O)Nc2ccc3c(c2)OCCO3)co1,7.01
5,CC(C)CC(c1nnnn1C1CCCCC1)N1CCN(c2ncccn2)CC1 (centres unmarked),-19.5
6,Cc1nn(-c2cccc(Cl)c2)nc1C(=O)O,12
7,C=C1CCC[C@]2(C)C[C@H]3OC(=O)C(CN(Cc4ccc(OC)c(OC)c4)CC(C)O)[C@H]3CC12 (some centres unmarked),-27.3
8,Cc1ccc(OCc2nnc(SCC(=O)N3CCOCC3)n2C)cc1,14.6
9,Cc1cnc(CNC(=O)CC2C(=O)NCCN2Cc2cccc(F)c2F)cn1 (centres unmarked),10.8
10,Cc1cc(CNC(=O)c2cc(COc3c(F)cccc3F)on2)nn1C,15.7
11,COc1ccc(NC(=O)CN(C)C(=O)c2cccc3ccccc23)cc1,3.09
12,Cn1cc(/C=C(\C#N)C(=O)Nc2ncc(Cc3ccc(Cl)cc3)s2)c2ccccc21,7.07
13,CN1C(=O)c2ccc(NC(=O)CCS(=O)(=O)c3ccccc3)cc2C1=O,-3.01
14,CSc1ccccc1NC(=O)CSc1nnc(COc2ccccc2)o1,-22.9
15,CC(=O)Nc1ccc(S(=O)(=O)NCCC(=O)NNC(=O)c2ccccc2O)cc1,0.372
16,C=CCOc1ccccc1CNc1ccc2c(c1)OCCO2.Cl,-4.5
17,CC(C)C(=O)NNC(=O)CSc1ncnc2c1cnn2-c1ccccc1Cl,9.5
18,CCOC(=O)C1CCCN(c2nc3ccccc3nc2C(C#N)C(=O)OC(C)C)C1 (centres unmarked),8.39
19,CCCCc1cc(=O)oc2c(C)c(OCC(=O)NCCN3CCOCC3)ccc12,-82.1
20,O=C(O)c1c(C(=O)O)c(-c2ccc(Br)cc2)n2c1CSC2,15
21,O=C(O)CCN1C(=O)C2C3C=CC(C3)C2C1=O (centres unmarked),14.2
22,Cc1ccc(C)c2nc3sc(C(=O)N4CCOCC4)c(N)c3cc12,6.64

row,Structure (SMILES),"hERG current change (%, negative = inhibition) at 10uM [%]"
1,O=C(NN1CCOCC1)c1cc(-c2ccc(Cl)c(Cl)c2)nc2ccccc12,10.8
2,Cc1ccccc1NC(=O)N1CCNC(=O)C1CC(=O)Nc1cc(Cl)ccc1Cl (centres unmarked),9.17
3,Cc1ccc(CNS(=O)(=O)c2ccc3c(c2)N(C)CCO3)cc1,12.7
4,CC(C)(C)OC(=O)NCCCC[C@H](NC(=O)c1nc[nH]c1C(=O)NCc1ccccc1)C(=O)OC(C)(C)C,-1.62
5,CCC1CCCCN1Cc1nc(Cc2ccccc2Cl)no1 (centres unmarked),-10.4
6,COc1ccc(N2CCN(S(=O)(=O)c3cc4c(cc3C)NC(=O)CO4)CC2)cc1,8.24
7,O=C(CSc1nnc(-c2ccncc2)o1)Oc1ccccc1,15.2
8,CCOC(=O)N1CCN(c2c(N3CCN(c4ccccc4OC)CC3)c(=O)c2=O)CC1,-5.67
9,Cc1nc2ccccn2c1/C(O)=C1\C(=O)C(=O)N(CCN2CCOCC2)C1c1cccs1 (centres unmarked),-3.48
10,CC(C)CN(C(=O)COC(=O)CSc1ccc([N+](=O)[O-])cc1)C1CCS(=O)(=O)C1 (centres unmarked),-48.5
11,CC(C)Oc1ccc(C(=O)Nc2ccccc2N2CCCC2)cc1,-14.8
12,COc1ccc(S(=O)(=O)NC2(C(F)(F)F)N=C3SCCN3C2=O)cc1 (centres unmarked),13.8
13,CCN(CC)C(=O)c1ccc(NC(=O)c2ccc(N3CCCC3=O)cc2)cc1,5.47
14,COc1cc2c(C(=O)NCCN(C)C)cn(CC(C)C)c(=O)c2cc1OC,16
15,O=C(CCc1ccccc1)Nc1ccc(NS(=O)(=O)c2ccccc2)cc1,8.43
16,CCN(CC)C(=O)c1ccccc1NC(=O)c1ccccc1C,21.8
17,Cc1ccc2oc(C(=O)NCc3ccccc3)cc(=O)c2c1,11.2
18,O=[N+]([O-])c1cc(-n2cnnn2)c(O)c([N+](=O)[O-])c1,21
19,Cc1cccc(NS(=O)(=O)c2ccc3c(c2)CCC(=O)N3)c1,4.67
20,CCCCN(C)Cc1c(C)[nH]c2ccc(Cl)cc2c1=O,-55.3
21,O=S(=O)(c1ccccc1)[C@@]1(c2ccc(Br)cc2)C[C@@H]2ON=C(c3ccccc3)[C@@H]2C1,-19.6
22,CCOC(=O)C1CCN(C(=O)Cc2cccc3ccccc23)CC1,-2.43

# Source: PMC4336329 (PLoS ONE, 2015)
